The whole screen tested about 310,000 compounds, of which about 14,000 (4.5%) showed an effect of 50% or more. The effect is printed as a negative number. The list shows a part of the results.
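Further: peak tail current of the secondary pulse compared with the same well before compound.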

For this experiment, the target named is human ether-à-go-go-related gene (hERG) potassium channel (human, UniProt Q12809). Put plainly: primary screen, population patch clamp on CHO cells stably expressing hERG.
human ether-à-go-go-related gene (hERG) potassium channel, sequence (Q12809 whole entry, looked up): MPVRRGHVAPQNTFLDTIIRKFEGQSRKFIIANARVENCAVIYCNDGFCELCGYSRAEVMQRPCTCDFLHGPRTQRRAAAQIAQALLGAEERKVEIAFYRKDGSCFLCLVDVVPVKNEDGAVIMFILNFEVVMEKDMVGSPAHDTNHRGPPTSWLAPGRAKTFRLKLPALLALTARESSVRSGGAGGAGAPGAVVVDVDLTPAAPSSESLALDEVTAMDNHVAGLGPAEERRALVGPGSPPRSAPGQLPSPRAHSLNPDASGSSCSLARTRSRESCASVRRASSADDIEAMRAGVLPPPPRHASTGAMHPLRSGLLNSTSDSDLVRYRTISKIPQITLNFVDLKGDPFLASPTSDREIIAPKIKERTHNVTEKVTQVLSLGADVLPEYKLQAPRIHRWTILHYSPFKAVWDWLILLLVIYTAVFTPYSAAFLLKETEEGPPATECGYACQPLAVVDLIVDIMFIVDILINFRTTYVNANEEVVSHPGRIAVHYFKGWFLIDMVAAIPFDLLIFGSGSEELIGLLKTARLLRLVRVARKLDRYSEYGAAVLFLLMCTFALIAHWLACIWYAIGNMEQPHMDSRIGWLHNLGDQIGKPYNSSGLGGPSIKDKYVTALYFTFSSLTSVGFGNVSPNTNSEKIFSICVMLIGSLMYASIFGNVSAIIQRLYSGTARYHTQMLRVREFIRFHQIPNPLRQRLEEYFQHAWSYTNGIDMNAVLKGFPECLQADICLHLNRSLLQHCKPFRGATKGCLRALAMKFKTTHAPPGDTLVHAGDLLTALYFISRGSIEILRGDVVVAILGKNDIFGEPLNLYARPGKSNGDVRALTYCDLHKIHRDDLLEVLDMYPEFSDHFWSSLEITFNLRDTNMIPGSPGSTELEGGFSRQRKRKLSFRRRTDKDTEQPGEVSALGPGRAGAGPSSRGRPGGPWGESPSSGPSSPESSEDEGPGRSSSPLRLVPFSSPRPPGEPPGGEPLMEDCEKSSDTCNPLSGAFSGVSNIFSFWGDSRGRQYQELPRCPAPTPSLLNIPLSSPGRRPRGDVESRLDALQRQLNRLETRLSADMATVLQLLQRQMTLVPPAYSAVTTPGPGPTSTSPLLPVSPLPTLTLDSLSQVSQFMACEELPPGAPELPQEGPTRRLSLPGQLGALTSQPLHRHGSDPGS
Consider `CN1CC[C@]2(CCN3CCc4c(oc5ccccc45)[C@@H]3C2)N(C)C1=O.Cl`, for which the “hERG current change (%, negative = inhibition) at 10uM” value is on record as -11.2%.
The same measure for `Cc1ccc(OC(C)C(=O)Nc2ccc(S(=O)(=O)N3CCOCC3)cc2)cc1` (centres unmarked): 6.02%; for `O=C(CSc1ncccn1)NN=C1CCCCCCC1`: 1.7%; for `CC(C)(C)n1nnnc1C(c1cccnc1)N1CCN(c2ccccc2)CC1` (centres unmarked): -8.19%.
In the case of `Cc1cccc(-n2nc3c(c2NC(=O)c2ccc(Br)o2)CSC3)c1C`, the “hERG current change (%, negative = inhibition) at 10uM” value is -6.05%.
As for `CCN(CC)S(=O)(=O)c1ccc(C(=O)Nc2cc3oc4ccccc4c3cc2OC)cc1`, the “hERG current change (%, negative = inhibition) at 10uM” value is 11.5%.
The same measure for `COC(=O)[C@@]1(Cc2ccc(OC)cc2)[C@@H]2C(=CC(=O)[C@H]2CC(=O)C(=O)N2CCCC2)CN1C(=O)c1ccccc1`: -26.5%; for `COc1cc(NC(=O)C2CC(=O)NC3=C2C(=O)CCC3)cc(OC)c1` (centres unmarked): 18.4%.
As for `Cc1ccc(S(=O)(=O)N[C@@H](CC(C)C)C(=O)N2CCC(C(=O)N[C@H](C(=O)O)C(C)C)CC2)cc1`, the “hERG current change (%, negative = inhibition) at 10uM” value is 1.02%.
The value for `O=C(NC1CC1)C1CCCN1C(=O)NC1CCCCC1` (centres unmarked) was 21.2%.
As for `CCOC(=O)N1CCN(Cc2ccc(F)cc2F)CC1.O=C(O)C(=O)O`, the “hERG current change (%, negative = inhibition) at 10uM” value is listed as 11.1%.
The value for `CCOC(=O)c1sc(NC(=O)CCN2C(=O)c3ccccc3C2=O)c(C(=O)OCC)c1C` was 8.29%; that for `CC(=O)Nc1cc2cc(NS(=O)(=O)c3ccc(Cl)cc3)ccc2oc1=O` was 7.62%.
For `COc1ccc(C(=O)Nc2ncccc2C)cc1S(=O)(=O)N1CCOCC1`, the “hERG current change (%, negative = inhibition) at 10uM” value is on record as -4.05%.
As to `N#Cc1ccc(OCCOCCNC2CCCC2)cc1`, the “hERG current change (%, negative = inhibition) at 10uM” value was -17.6%.
The same measure for `CCCCNS(=O)(=O)c1ccc(NC(=O)c2cccs2)cc1`: 9.72%; for `CCc1nnc(NC(=O)CSc2nnc(-c3ccccc3O)o2)s1`: 24.3%.
Take `Cc1ccc2nc(C)cc(OCC(=O)O)c2c1.Cl`: the “hERG current change (%, negative = inhibition) at 10uM” value stood at 24.6%.
The same measure for `O=C1CCCC(O)=C1C=Nc1cccc(C(F)(F)F)c1`: -3.27%; for `COc1cccc2sc(N(CCN(C)C)C(=O)/C=C/c3cccs3)nc12.Cl`: -41.5%; for `COC(=O)C1=C(C)NC(=O)C1(Nc1ccc(Cl)cn1)C(F)(F)F` (centres unmarked): 8.7%.
As to `O=C(CN(C(=O)c1csnn1)c1ccccc1C(F)(F)F)NC1CCCCC1`, the “hERG current change (%, negative = inhibition) at 10uM” value is 5.2%.
For the compound `CCOc1ccc(NC(=O)C2CC(=O)N(c3cc(C)cc(C)c3)C2)cc1` (centres unmarked), the “hERG current change (%, negative = inhibition) at 10uM” value was -10.1%.
The value for `O=C(CCNS(=O)(=O)c1cccs1)N1CCc2ccccc2C1` was -21%; that for `Cc1cccc(OCCCC(=O)Nc2ccc(S(=O)(=O)N3CCCC3)cc2)c1` was -21.3%; that for `Clc1ccc(-c2nnsc2SCc2ccccc2)cc1` was -0.542%.
The same measure for `Cc1ccc(-c2csc(C3=C(O)CN(NC(=O)c4ccc([N+](=O)[O-])cc4)C3=N)n2)cc1`: 26.3%; for `Fc1ccccc1CCNCc1ccccc1`: 5.42%.
The value for `COc1ccc(CN(C(=O)CSc2nnc(-c3ccccc3C)o2)c2ccc(F)cc2)cc1` was 8.45%.
In the case of `Cc1ccc(S(=O)(=O)/N=C/c2cc(Br)ccc2O)cc1`, the “hERG current change (%, negative = inhibition) at 10uM” value was determined as 4.53%.
`O=C(CSc1nnc(NC(=O)c2ccc(F)cc2)s1)NCc1ccco1`: the “hERG current change (%, negative = inhibition) at 10uM” value was determined as 19%.
`Cc1ccc(N(C(=O)c2csnn2)C(C(=O)NC2CCCC2)c2cccnc2)c(C)c1` (centres unmarked): the “hERG current change (%, negative = inhibition) at 10uM” value is given as -8.47%.
The value for `CN(C)c1ccc(NC(=O)CSc2nnc(-c3cccs3)n2Cc2ccco2)cc1` was -39.4%; that for `CCC(=O)N1CCc2cc(Br)cc(S(=O)(=O)NCCN3CCCC3)c21` was 11.1%; that for `CS(=O)(=O)N(Cc1ccccc1Cl)c1ccc(C(=O)NCc2ccccn2)cc1` was -5.8%.
The value for `COC(=O)CNC(=O)c1cc(-c2ccncc2)nc2ccccc12` was -7.19%; that for `Cc1ccc(NC(=O)Cn2cccc2)cc1` was -19.2%.
The same measure for `CCC1CCCCN1C(=O)CSc1nnc(-c2ccc(Cl)cc2)o1` (centres unmarked): -7.62%; for `COc1ccccc1N(Cc1cc(=O)[nH]c2ccccc12)C(=O)c1cccc([N+](=O)[O-])c1`: 5.22%; for `O=C(NC1=NCCS1)C1CCN(S(=O)(=O)c2ccc(Cl)cc2)CC1`: 14%.
Turning to `N#Cc1ccccc1OCC(=O)NCc1ccccc1CN1CCCC1`, the “hERG current change (%, negative = inhibition) at 10uM” value is recorded as -22.4%.
As to `CCOC(=O)c1cnc2c(C#N)cnn2c1N`, the “hERG current change (%, negative = inhibition) at 10uM” value was 12.5%.
The value for `C=C1C(=O)O[C@@H]2C[C@@H](C)[C@H]3C=CC(=O)[C@]3(O)C[C@@H]12` was 19.3%.
The value for `C/C(=N\OCC(=O)O)c1ccc(Cl)cc1` was 13.5%.
Turning to `CC1C(=O)Nc2ccccc2N1C(=O)c1cccc(C(F)(F)F)c1` (centres unmarked), the “hERG current change (%, negative = inhibition) at 10uM” value is listed as -20.2%.
The value for `COc1ccc(Cn2c(SCc3ccccc3C)nc3cc(OC)c(OC)cc3c2=N)cc1` was -1.25%; that for `Cc1cc(C)n2nc(SCCOc3ccccc3)nc2n1` was -38.7%; that for `Cc1noc(C)c1S(=O)(=O)N1CCCC(C(=O)NCc2ccccn2)C1` (centres unmarked) was 3.78%.
The value for `CC(=O)N(C1=C(Cl)C(=O)c2ccccc2C1=O)c1ccc(C(=O)O)cc1` was 3.2%.
For the compound `Cc1csc(NC(=O)CSc2nnc(-c3ccc(Cl)cc3)n2N)n1`, the “hERG current change (%, negative = inhibition) at 10uM” value is on record as -6.15%.
The value for `COc1ccccc1C(=O)NNC(=O)C(=O)Nc1cccc(Cl)c1C` was 26.9%; that for `CCOC(=O)NC(O)C(=O)c1cccs1` (centres unmarked) was 24.3%.
The value for `C=CCNC(=O)C1CCN(S(=O)(=O)CC)CC1` was 0.813%.
In the case of `COc1ccc(NC(=O)c2ccc(COc3ccccc3Br)o2)c(OC)c1`, the “hERG current change (%, negative = inhibition) at 10uM” value was 10.5%.
With `Cc1ccc(CSC2=NCCN2S(=O)(=O)c2ccc(F)cc2)cc1`, the “hERG current change (%, negative = inhibition) at 10uM” value was determined as 4.62%.
`O=C(NC(=S)N1CCCc2ccccc21)c1ccco1`: the “hERG current change (%, negative = inhibition) at 10uM” value is -1.2%.
`COc1ccc(C(=O)NC2CCN(C(=S)NCCc3ccccc3)CC2)cc1`: the “hERG current change (%, negative = inhibition) at 10uM” value is on record as 8.78%.
Consider `CC(C)Cc1c2c([nH]c(=S)c1C#N)CCCC2`, for which the “hERG current change (%, negative = inhibition) at 10uM” value came out at 14.1%.
As for `O=C(CSc1nnc(CNC(=O)c2cccc(C(F)(F)F)c2)o1)NC1CCCC1`, the “hERG current change (%, negative = inhibition) at 10uM” value was found to be 5.51%.
In the case of `COc1ccc(C(=O)C2CCCN(C(=O)c3ccc(F)cc3)C2)cc1OC` (centres unmarked), the “hERG current change (%, negative = inhibition) at 10uM” value was -3.95%.
The same measure for `N#C/C(=C\c1cn(Cc2cccc(F)c2)c2ccccc12)C(=O)NCc1ccco1`: -1.04%; for `c1ccc(SCCCCNC2CCCC2)cc1`: -30.4%; for `Cc1cc(NS(=O)(=O)c2ccc(NC(=S)NC(=O)c3cccnc3)cc2)no1`: 13.3%.
On to `COc1ccc(NC(=O)/C=C/c2ccccc2)cn1`, for which the “hERG current change (%, negative = inhibition) at 10uM” value is listed as -4.92%.
The same measure for `N#Cc1cn(-c2cccc(C(F)(F)F)c2)c(=O)[nH]c1=O`: 15%; for `Nc1c(-c2cccs2)cnn1-c1nc(-c2ccc(F)cc2)cs1`: 10.8%.
With `CN(C)S(=O)(=O)c1ccc(C(=O)OCC(=O)Nc2ccc(OC(F)F)cc2)cc1`, the “hERG current change (%, negative = inhibition) at 10uM” value came to 16.4%.
The same measure for `CSc1nnc(CNS(=O)(=O)c2ccc(Cl)cc2)n1C`: 17.4%; for `Cc1ccc(NC2=NC(=S)N(CC#N)C23CCCCC3)cc1`: -6.19%.
The same measure for `COCCNC(=O)c1c(N)n(-c2ccccc2)c2nc3ccccc3nc12`: -27.2%; for `O=c1nc(Nc2cccc(Cl)c2)oc2cc(Cl)oc(=O)c12`: 9.57%.
On to `COC(=O)CSc1nc(N)c2c3c(sc2n1)CCCC3`, for which the “hERG current change (%, negative = inhibition) at 10uM” value was -18.3%.
On to `O=S(=O)(NC1CCCCC1N1CCC(O)CC1)c1ccc(Cl)cc1` (centres unmarked), for which the “hERG current change (%, negative = inhibition) at 10uM” value was 20.7%.
Regarding `CCOc1ccccc1OCCCOc1ccc(C)cc1Br`, the “hERG current change (%, negative = inhibition) at 10uM” value worked out at 7.97%.
Take `C=CCCCCCCCC(=O)OC`: the “hERG current change (%, negative = inhibition) at 10uM” value is on record as 24.6%.
For `CC(C)COc1ccc(C2(C#N)CC[N+](C)(C)CC2)cc1.[Br-]`, the “hERG current change (%, negative = inhibition) at 10uM” value worked out at 5.72%.
In the case of `Cc1cccc(C)c1OCC(=O)Nc1ccc(S(=O)(=O)Nc2ccccn2)cc1`, the “hERG current change (%, negative = inhibition) at 10uM” value is 0.175%.
The same measure for `CN(C)CCCN(C(=O)c1ccco1)c1nc2ccc(Br)cc2s1.Cl`: -71.8%; for `Cc1sc2ncn(CC(=O)NCCCN3CCC(C)CC3)c(=O)c2c1S(=O)(=O)N1CCC(C)CC1`: -8.34%; for `O=C(Nc1ccncc1)c1ccc(C(=O)Nc2ccncc2)cc1`: 41.2%.
The same measure for `COc1ccc(C(=O)/C=C/c2cn(CC(O)CN3CCN(C)CC3)c3ccccc23)cc1OC` (centres unmarked): -40.7%.
For `CCc1sc(NC(=O)C(C)C)nc1-c1ccccc1`, the “hERG current change (%, negative = inhibition) at 10uM” value was -1.18%.
The value for `Cc1n[nH]c(=S)n1/N=C/c1c(O)ccc2ccccc12` was 24.1%.
The same measure for `COC(=O)c1ccc(Oc2nc(C(N)=O)cc(-c3ccccc3)n2)cc1`: 10.7%; for `CCC/C(=N\NC(=O)CNC(=O)/C=C/c1ccco1)c1ccccc1`: -9.16%; for `O=C(COc1ccc(S(=O)(=O)N2CCCCC2)cc1)N1CCN(Cc2ccccc2)CC1`: -32.5%.
The value for `CCN1CCN(CCCNC(=O)CNC(=O)c2nn(-c3ccc(OC)cc3OC)c(=O)c3ccccc23)CC1` was 19.2%.
Consider `COc1ccc(-n2ncc3c2CC(C)(C)CC3NC(=O)CCc2c(C)nn(C)c2C)cc1` (centres unmarked), for which the “hERG current change (%, negative = inhibition) at 10uM” value is recorded as -30.4%.
Consider `CCC1(C)Cc2c(sc3[nH]c(=S)n(Cc4ccccc4)c(=O)c23)CO1` (centres unmarked), for which the “hERG current change (%, negative = inhibition) at 10uM” value is recorded as 3.04%.

Values taken from article PMC4336329 (PLoS ONE, 2015).
